About 220 (0.56%) of roughly 39,000 compounds showed activity. This is one part of the list.
What follows are compounds tested on Escherichia coli K-12 BW25113 (assay: relative growth (OD600 normalised to plate interquartile mean) (fraction); higher = less growth inhibition, active = 0.2 or less). Conditions: 50 µM; LB; incubation time: overnight (16-24 h).
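Further: static incubation at 37 °C against the wild-type strain, values averaged over two biological replicates.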

| Structure (SMILES) | relative growth |
| --- | --- |
| Nc1ccncc1N | inactive: 0.969 |
| Cc1noc(C)c1NC(=O)Nc1ccc2c(c1)C(=O)N([C@H](C)CO)C[C@@H](C)[C@@H](CN(C)C(=O)Nc1cccc3ccccc13)O2 | inactive: 1.01 |
| CNC[C@@H]1Oc2ccc(NC(=O)Cn3cnnn3)cc2CC(=O)N([C@H](C)CO)C[C@@H]1C | inactive: 1 |
| Nc1ccn([C@H]2C[C@@H](O)[C@@H](CO)O2)c(=O)n1 | inactive: 0.988 |
| C[C@H]1N(c2cnn(C)c2)C(=O)COC12CCN(S(C)(=O)=O)CC2 | inactive: 1.01 |
| COc1cc2ccc(=O)oc2c(O[C@H]2O[C@@H](CO)[C@@H](O)[C@@H](O)[C@@H]2O)c1O | inactive: 1.03 |
| C[C@@H]1CN([C@H](C)CO)C(=O)Cc2cc(NC(=O)Cn3cnnn3)ccc2O[C@@H]1CN(C)C(=O)Nc1cccc2ccccc12 | inactive: 0.999 |
| Cc1noc(C)c1NC(=O)N(C)C[C@@H]1OCCCC[C@H](C)Oc2ccc(NC(=O)Nc3ccccc3)cc2C(=O)N([C@@H](C)CO)C[C@H]1C | inactive: 0.952 |
| CN1C[C@@H]2CN(C(=O)[C@H]3CCOC3)C[C@H]2C1=O | inactive: 0.972 |
| COc1cccc(S(=O)(=O)Nc2ccc3c(c2)[C@H]2C[C@@H](CC(=O)NCc4cccc(F)c4)O[C@@H](CO)[C@H]2O3)c1 | inactive: 0.965 |
| O=C(C[C@@H]1C[C@@H]2c3cc(NC(=O)c4ccc5c(c4)OCO5)ccc3O[C@@H]2[C@H](CO)O1)NCc1cccnc1 | inactive: 0.999 |
| C[C@H](CO)N1C[C@H](C)[C@H](CN(C)S(=O)(=O)c2ccc(Cl)cc2)Oc2ccc(NC(=O)Nc3ccc(C(F)(F)F)cc3)cc2C1=O | inactive: 1.02 |
| C[C@@H]1CN([C@H](C)CO)C(=O)CCCn2cc(nn2)CO[C@H]1CN(C)S(=O)(=O)c1ccc(Cl)cc1 | inactive: 0.999 |
| COc1cccc(C#Cc2cnc3c(c2)C(=O)N([C@H](C)CO)C[C@H](C)[C@@H](CN(C)C(=O)C2CCC2)O3)c1 | inactive: 1.02 |
| COc1ccc2c3c([nH]c2c1)[C@H](CO)N(C[C@]13CCN(CC1)Cc1ccccc1)S(=O)(=O)c1cn(cn1)C | inactive: 1.02 |
| Clc1ccc(-c2onc3cc(-c4ccccc4)ccc23)cc1 | inactive: 1.05 |
| CCC(=O)OC1C2CC3=C4CC(=O)OC(c5ccoc5)C4(C)CCC3C(C)(C2=O)C(CC(=O)OC)C1(C)C (centres undefined) | inactive: 1.04 |
| Cc1ccc(S(=O)(=O)N2C[C@@H](O)COC[C@@H]3O[C@H](CC(=O)NCc4ccc5c(c4)OCO5)CC[C@H]32)cc1 | inactive: 0.958 |
| Cc1ccc(S(=O)(=O)N(C)C[C@@H]2Oc3ccc(NS(=O)(=O)c4cn(C)cn4)cc3C(=O)N([C@@H](C)CO)C[C@@H]2C)cc1 | inactive: 1.02 |
| C[C@H]1CCCCO[C@@H](CN(C)C(=O)Nc2cccc3ccccc23)[C@@H](C)CN([C@@H](C)CO)C(=O)c2cc(NC(=O)Cc3ccccc3)ccc2O1 | inactive: 0.987 |

| Structure (SMILES) | relative growth |
| --- | --- |
| C[C@H](NC(=O)C(C)(C)Oc1ccc(C(F)(F)F)cn1)[C@@H](Cc1ccc(Cl)cc1)c1cccc(C#N)c1 | inactive: 1.02 |
| CC[C@@H](CO)NC(=O)c1ccc(N)cc1 | inactive: 1.01 |
| C[C@@H]1CCCCO[C@@H](CN(C)S(C)(=O)=O)[C@H](C)CN([C@@H](C)CO)C(=O)c2cc(NC(=O)CCCN(C)C)ccc2O1 | inactive: 0.999 |
| C[C@@H]1CN([C@@H](C)CO)C(=O)c2cc(NC(=O)C3CCCCC3)ccc2O[C@@H](C)CCCCO[C@H]1CN(C)C(=O)NC1CCCCC1 | inactive: 0.983 |
| CC(C)NC(=O)Nc1ccc2c(c1)C(=O)N([C@@H](C)CO)C[C@@H](C)[C@H](CN(C)Cc1ccccc1)OCCCC[C@@H](C)O2 | inactive: 1 |
| CCS(=O)(=O)NCC[C@@H]1CC[C@@H](NC(=O)Cc2ccccn2)[C@H](CO)O1 | inactive: 0.94 |
| Cc1noc(C)c1NC(=O)N(C)C[C@@H]1Oc2ccc(NC(=O)c3ccncc3)cc2C(=O)N([C@H](C)CO)C[C@H]1C | inactive: 0.964 |
| NNC(=S)NCc1cccs1 | inactive: 0.947 |
| C[C@@H]1CN([C@H](C)CO)C(=O)c2cc(NC(=O)Nc3ccccc3)ccc2O[C@@H](C)CCCCO[C@H]1CN(C)Cc1ccc(C(=O)O)cc1 | inactive: 1.01 |
| COc1ccc(NC(=O)Nc2cccc3c2O[C@H](CN(C)Cc2ccc(Oc4ccccc4)cc2)[C@@H](C)CN([C@@H](C)CO)C3=O)cc1 | inactive: 1 |
| C[C@@H]1CCCCO[C@@H](CN(C)Cc2ccc(Cl)c(Cl)c2)[C@H](C)CN([C@@H](C)CO)C(=O)c2cc(NC(=O)Nc3cccc4ccccc34)ccc2O1 | inactive: 1.03 |
| Cc1ccc(S(=O)(=O)N(C)C[C@H]2Oc3c(NS(=O)(=O)c4cn(C)cn4)cccc3C(=O)N([C@@H](C)CO)C[C@H]2C)cc1 | inactive: 0.982 |
| CN1CCN(C(=O)C[C@H]2CC[C@@H]3[C@H](COC[C@@H](O)CN3Cc3ccc(Oc4ccccc4)cc3)O2)CC1 | inactive: 0.991 |
| C[C@H]1CN([C@@H](C)CO)C(=O)c2cccc(NC(=O)c3ccc(-c4nccs4)cc3)c2O[C@H]1CN(C)C(=O)Nc1ccc(F)cc1 | inactive: 0.984 |
| CCC(C)(C)C(=O)OC1CC(C)C=C2C=CC(C)C(CCC3CC(O)CC(=O)O3)C21 (centres undefined) | inactive: 1.15 |
| C[C@@H]1CN([C@@H](C)CO)C(=O)c2cc(NS(=O)(=O)c3cccs3)ccc2O[C@H]1CN(C)Cc1ccc(Cl)c(Cl)c1 | inactive: 1.02 |
| C[C@H](CO)N1C[C@H](C)[C@@H](CN(C)S(=O)(=O)c2ccc(F)cc2)Oc2ccc(NC(=O)CCN3CCOCC3)cc2C1=O | inactive: 1.01 |
| COc1ccc(S(=O)(=O)N[C@H]2C=C[C@H](CC(=O)NCCc3ccncc3)O[C@@H]2CO)cc1 | inactive: 0.982 |
| C[C@@H]1CN([C@H](C)CO)C(=O)c2cccc(NC(=O)Nc3ccc(F)cc3)c2O[C@@H]1CN(C)C(=O)Nc1ccc(C(F)(F)F)cc1 | inactive: 0.978 |
| C[C@H]1CN([C@@H](C)CO)C(=O)c2cccc(NC(=O)c3cnccn3)c2O[C@H]1CN(C)C(=O)Nc1ccccc1 | inactive: 1.01 |

| Structure (SMILES) | relative growth |
| --- | --- |
| C[C@@H]1CN([C@@H](C)CO)C(=O)c2cc(NC(=O)NC3CCCCC3)ccc2O[C@@H](C)CCCCO[C@@H]1CN(C)C(=O)c1ccncc1 | inactive: 0.998 |
| C[C@@H]1CCCCO[C@H](CN(C)C(=O)CCC(F)(F)F)[C@@H](C)CN([C@@H](C)CO)C(=O)c2cc(NS(=O)(=O)c3ccc(F)cc3)ccc2O1 | inactive: 1.01 |
| COCC#Cc1ccc2c(c1)O[C@H](CN(C)S(=O)(=O)c1ccc(C)cc1)[C@H](C)CN([C@H](C)CO)S2(=O)=O | inactive: 1.02 |
| NC(=O)NCCC[C@H](N)C(=O)O | inactive: 0.983 |
| C[C@@H]1CCCCO[C@@H](CN(C)Cc2ccncc2)[C@H](C)CN([C@H](C)CO)C(=O)c2cc(NS(=O)(=O)c3ccc(Cl)cc3)ccc2O1 | inactive: 0.993 |
| C[C@H]1CN([C@@H](C)CO)C(=O)c2cccc(NS(=O)(=O)c3cn(C)cn3)c2O[C@H]1CN(C)S(=O)(=O)c1ccc(Cl)cc1 | inactive: 0.984 |
| COc1ccc(S(=O)(=O)N(C)C[C@@H]2Oc3ccc(NC(=O)Nc4c(C)noc4C)cc3CC(=O)N([C@@H](C)CO)C[C@H]2C)cc1 | inactive: 1 |
| C[C@@H]1CN([C@H](C)CO)C(=O)c2cccc(NC(=O)Nc3ccc4c(c3)OCO4)c2O[C@@H]1CN(C)Cc1ccc(C(F)(F)F)cc1 | inactive: 0.964 |
| C[C@@H]1CN([C@H](C)CO)C(=O)c2cc(NC(=O)Cc3ccccc3)ccc2O[C@@H](C)CCCCO[C@H]1CN(C)Cc1ccccc1 | inactive: 1.01 |
| C[C@H]1CN([C@@H](C)CO)C(=O)c2cc(C#CC3(O)CCCC3)cnc2O[C@H]1CN(C)S(C)(=O)=O | inactive: 1.02 |
| Cc1ccc(S(=O)(=O)N(C)C[C@@H]2Oc3ccc(NC(=O)Nc4ccc(C(F)(F)F)cc4)cc3CC(=O)N([C@@H](C)CO)C[C@H]2C)cc1 | inactive: 1.06 |
| C[C@@H]1CN([C@H](C)CO)C(=O)Cc2cc(NC(=O)Nc3ccc(F)cc3)ccc2O[C@H]1CN(C)Cc1ccc(-c2ccccc2)cc1 | inactive: 1.02 |
| C[C@H]1CCCCO[C@H](CN(C)C(=O)CCC(F)(F)F)[C@@H](C)CN([C@@H](C)CO)C(=O)c2cc(NC(=O)Cc3ccccc3)ccc2O1 | inactive: 0.989 |
| COc1ccc(S(=O)(=O)N(C)C[C@H]2OCCCC[C@@H](C)Oc3ccc(NS(=O)(=O)c4cn(C)cn4)cc3C(=O)N([C@@H](C)CO)C[C@@H]2C)cc1 | inactive: 0.977 |
| Cc1noc(C)c1S(=O)(=O)Nc1ccc2c(c1)C(=O)N([C@H](C)CO)C[C@@H](C)[C@H](CN(C)Cc1ccc(Cl)c(Cl)c1)OCCCC[C@@H](C)O2 | inactive: 0.998 |
| C[C@@H]1CN([C@H](C)CO)C(=O)c2cc(NC(=O)CCN3CCOCC3)ccc2O[C@@H]1CN(C)S(=O)(=O)c1cccs1 | inactive: 1.01 |
| C[C@H]1CN([C@@H](C)CO)C(=O)c2cc(NC(=O)Nc3ccc(C(F)(F)F)cc3)ccc2O[C@@H]1CN(C)Cc1ccc2c(c1)OCO2 | inactive: 0.932 |
| COc1ccc(C#Cc2ccc3c(c2)[C@]2(C(=O)N3)[C@H](C(=O)O)[C@H]3C(=O)O[C@H](c4ccccc4)[C@H](c4ccccc4)N3[C@@H]2c2ccccc2OCCO)cc1 | inactive: 0.949 |
| COc1ccc2c3c([nH]c2c1)[C@@H](CO)N(C[C@]13CCN(CC1)S(=O)(=O)c1ccccc1)C(=O)c1cnccn1 | inactive: 0.978 |
